# From PubChem BioAssay (NCATS)
# The shares of active, inactive and inconclusive entries below differ from those in the screen. Potencies of inconclusive entries are left out as doubtful fits. The source made the active and inactive calls. Calls follow the shape of the dose curve; as a rule, active = well fitted curve in the direction sought with a large enough effect; inconclusive = small, poorly fitted or top-dose-only effect, or another doubt; inactive = no such curve, though single readings can be large; an effect the other way counts as inactive or inconclusive.
# Assays:
# [1] = target: N-terminal Xaa-Pro-Lys N-methyltransferase 1 (Homo sapiens) (UniProt Q9BV86); assay: qHTS Assay for Inhibitors of N-terminal methyltransferase 1 (NTMT1): LOPAC validation of the NTMT1 SAHH-coupled ThioGlo3 Assay (AID 1347143); also: nearly all actives have a fitted effect of over 70% in size
# UniProt Q9BV86, sequence (Q9BV86 whole entry, looked up): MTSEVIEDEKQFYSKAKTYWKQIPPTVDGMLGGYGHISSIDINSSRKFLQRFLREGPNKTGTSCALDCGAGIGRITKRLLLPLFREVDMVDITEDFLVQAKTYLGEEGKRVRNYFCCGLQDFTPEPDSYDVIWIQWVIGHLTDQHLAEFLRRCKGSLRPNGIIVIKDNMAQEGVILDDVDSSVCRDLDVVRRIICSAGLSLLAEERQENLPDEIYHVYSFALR
# Procedure, shortened: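 Fluorescence read-out (excitation 340nm, emission 450nm) of SAH-derived thiol, measured via SAHH coupling and ThioGlo3, taken immediately and after a 30 min room-temperature reaction, then normalized to the background read. Enzyme: NTMT1 at 125nM; cofactor SAM 100uM in the added reagent.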
# [2] = qHTS of pediatric cancer cell lines to identify multiple opportunities for drug repurposing: Confirmatory screen for control Hh wild type fibroblast cells (AID 1347121); also: nearly all actives have a fitted effect of over 70% in size
# Procedure, shortened: (§1)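 Cells (500-1,000/well) in growth media were settled 5 h at 37 degrees C, then given compounds for 48 h. Viability was read as CellTiter-Glo luminescence. Primary runs used MIPE at 11 points (0.78 nM-46 µM) and NPC at 8 points (0.59 nM-46 µM); follow-ups used 11 points.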
# [3] = qHTS of pediatric cancer cell lines to identify multiple opportunities for drug repurposing: Confirmatory screen for RD cells (AID 1347124); conditions: RD rhabdomyosarcoma cell viability; activity change, negative = cytotoxic: at 45.9 µM (top of the series);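 also: cells exposed to compound for 48 h before viability readout; nearly all actives have a fitted effect of over 65% in size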
# Procedure, shortened: as §1
# [4] = qHTS of pediatric cancer cell lines to identify multiple opportunities for drug repurposing: Confirmatory screen for Rh18 cells (AID 1347125); conditions: Rh18 rhabdomyosarcoma cells, viability; activity change, negative = cytotoxic: at 45.9 µM (top of the series); also: nearly all actives have a fitted effect of over 55% in size
# Procedure, shortened: as §1
# [5] = qHTS of pediatric cancer cell lines to identify multiple opportunities for drug repurposing: Confirmatory screen for Saos-2 cells (AID 1347127); also: nearly all actives have a fitted effect of over 60% in size
# Procedure, shortened: as §1
# [6] = qHTS of pediatric cancer cell lines to identify multiple opportunities for drug repurposing: Confirmatory screen for OHS-50 cells (AID 1347128);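 also: compound exposure lasted 48 h at 37 degrees C; nearly all actives have a fitted effect of over 55% in size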
# Procedure, shortened: as §1
# [7] = qHTS of pediatric cancer cell lines to identify multiple opportunities for drug repurposing: Confirmatory screen for Rh30 cells (AID 1347126); also: nearly all actives have a fitted effect of over 55% in size
# Procedure, shortened: as §1
# [8] = qHTS of pediatric cancer cell lines to identify multiple opportunities for drug repurposing: Confirmatory screen for SK-N-SH cells (AID 1347129);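 also: cells exposed to compound for 48 h before viability read; nearly all actives have a fitted effect of over 60% in size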
# Procedure, shortened: as §1
# [9] = qHTS of pediatric cancer cell lines to identify multiple opportunities for drug repurposing: Confirmatory screen for U-2 OS cells (AID 1347122); also: nearly all actives have a fitted effect of over 65% in size
# Procedure, shortened: as §1
# [10] = qHTS of pediatric cancer cell lines to identify multiple opportunities for drug repurposing: Confirmatory screen for Rh41 cells (AID 1347123);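 also: 48 h compound exposure; nearly all actives have a fitted effect of over 60% in size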
# Procedure, shortened: as §1
# Potency is read from the fitted curve at half-maximal effect; tags tell the direction and shape of the fitted curve.
structure (smiles),measurement,setting,value
CS(=O)(=O)Nc1ccc([N+](=O)[O-])cc1Oc1ccccc1,Potency,[1],"inconclusive [inhibitor, partial curve]"
CCN(CC)CCOc1ccc(Nc2ncc3cc(-c4c(Cl)cccc4Cl)c(=O)n(C)c3n2)cc1,Potency,[2],"inconclusive [cytotoxic, full curve, poor fit]"
same,Potency,[1],"inconclusive [inhibitor, partial curve, poor fit]"
CCN(CC)Cc1ccc2cc(COC(=O)Nc3ccc(C(=O)NO)cc3)ccc2c1,Potency,[2],"inconclusive [rising, full curve]"
same,Potency,[3],"inconclusive [rising, full curve]"
same,Potency,[4],"inconclusive [rising, full curve, poor fit]"
same,Potency,[5],inactive
same,Potency,[6],"inconclusive [rising, full curve]"
CC1(C)CC(=O)c2c(C(F)(F)F)nn(-c3ccc(C(N)=O)c(NC4CCC(O)CC4)c3)c2C1 (stereo unspecified),Potency,[2],"inconclusive [cytotoxic, full curve, poor fit]"
same,Potency,[3],"inconclusive [cytotoxic, partial curve, poor fit]"
same,Potency,[7],active: 0.369 µM
same,Potency,[5],"inconclusive [cytotoxic, full curve]"
same,Potency,[6],"inconclusive [cytotoxic, full curve]"
same,Potency,[8],active: 0.264 µM
Cn1cnc(=N)c2[nH]cnc21,Potency,[9],"inconclusive [cytotoxic, partial curve, poor fit]"
same,Potency,[10],"inconclusive [cytotoxic, full curve]"
same,Potency,[3],"inconclusive [cytotoxic, single point]"
same,Potency,[7],"inconclusive [cytotoxic, single point]"
same,Potency,[6],inactive
same,Potency,[8],inactive
COc1ccc(OC)c(-c2nnc3ccc(-c4ccc(OC)c(O[C@@H]5CCOC5)c4)nn23)c1,Potency,[2],"inconclusive [cytotoxic, full curve, poor fit]"
same,Potency,[7],active: 4.14 µM
same,Potency,[5],"inconclusive [cytotoxic, partial curve]"
same,Potency,[6],active: 6.57 µM
same,Potency,[8],"inconclusive [cytotoxic, full curve]"
CC=CC1=C(C(=O)O)N2C(=O)[C@H](NC(=O)[C@H](N)c3ccc(O)cc3)[C@@H]2SC1,Potency,[2],inactive
same,Potency,[4],inactive
same,Potency,[5],"inconclusive [rising, partial curve, poor fit]"
same,Potency,[6],inactive
same,Potency,[8],inactive
Cc1ccc(Nc2nccc(N(C)c3ccc4c(C)n(C)nc4c3)n2)cc1S(N)(=O)=O,Potency,[2],"inconclusive [cytotoxic, partial curve, poor fit]"
same,Potency,[4],"inconclusive [cytotoxic, partial curve]"
same,Potency,[7],"inconclusive [cytotoxic, full curve]"
same,Potency,[5],"inconclusive [cytotoxic, partial curve, poor fit]"
same,Potency,[6],"inconclusive [cytotoxic, partial curve]"
CCC(=O)O[C@]1(C(=O)CCl)[C@@H](C)C[C@H]2[C@@H]3CCC4=CC(=O)C=C[C@]4(C)[C@@]3(F)[C@@H](O)C[C@@]21C,Potency,[10],active: 26.1 µM
same,Potency,[3],inactive
Cc1csc(-c2nnc(Nc3ccc(Oc4ncccc4-c4ccnc(N)n4)cc3)c3ccccc23)c1,Potency,[9],"inconclusive [cytotoxic, partial curve, poor fit]"
same,Potency,[10],"inconclusive [cytotoxic, single point]"
same,Potency,[3],inactive
same,Potency,[7],inactive
same,Potency,[5],"inconclusive [cytotoxic, single point]"
same,Potency,[6],inactive
Cc1ccc(C(=O)Nc2ccc(CN3CCN(C)CC3)c(C(F)(F)F)c2)cc1C#Cc1cnc2cccnn12,Potency,[2],inactive
same,Potency,[3],active: 20.8 µM
same,Potency,[5],"inconclusive [cytotoxic, full curve, poor fit]"
same,Potency,[6],inactive
CNC(=O)[C@H](CC1=CN=C2C=CCC=C12)NC(=O)[C@@H](CC(=O)NO)CC(C)C,Potency,[2],"inconclusive [cytotoxic, partial curve]"
same,Potency,[3],"inconclusive [cytotoxic, full curve, poor fit]"
same,Potency,[5],"inconclusive [cytotoxic, full curve, poor fit]"
same,Potency,[6],"inconclusive [cytotoxic, full curve, poor fit]"
